{"source": "PubChem BioAssay AID588342", "about": "(National Center for Advancing Translational Sciences (NCATS), 2011)", "note": "The whole screen tested about 360,000 compounds, of which about 25,000 (6.9%) were called active. Inconclusive results, whose numbers are uncertain, are shown with a selection of clear calls. Calls follow the shape of the dose curve; as a rule, active = well fitted inhibition curve with a large enough effect; inconclusive = small, poorly fitted or top-dose-only effect; inactive = flat fitted curve, though single readings scatter. Potencies beside an inconclusive call are fits to weak or partial responses and may not hold up. Potency is read from the fitted curve at half-maximal effect; tags tell the direction and shape of the fitted curve."}
{"target": "Luciferin 4-monooxygenase (Photinus pyralis) (UniProt P08659)", "sequence (P08659 whole entry, looked up)": "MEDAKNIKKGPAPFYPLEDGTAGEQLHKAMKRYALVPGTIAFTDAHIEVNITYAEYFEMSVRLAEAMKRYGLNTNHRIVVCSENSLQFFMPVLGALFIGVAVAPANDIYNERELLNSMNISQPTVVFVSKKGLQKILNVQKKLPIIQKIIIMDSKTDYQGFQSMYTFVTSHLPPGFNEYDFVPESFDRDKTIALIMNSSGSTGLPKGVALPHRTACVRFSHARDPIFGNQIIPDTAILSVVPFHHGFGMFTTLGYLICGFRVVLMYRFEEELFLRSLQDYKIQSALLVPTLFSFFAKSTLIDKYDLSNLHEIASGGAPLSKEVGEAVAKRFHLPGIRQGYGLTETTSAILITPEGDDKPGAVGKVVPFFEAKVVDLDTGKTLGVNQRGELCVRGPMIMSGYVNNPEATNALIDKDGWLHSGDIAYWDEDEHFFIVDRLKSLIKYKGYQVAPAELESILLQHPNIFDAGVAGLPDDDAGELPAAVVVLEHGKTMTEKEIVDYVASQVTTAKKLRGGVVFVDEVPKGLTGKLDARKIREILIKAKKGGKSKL", "test": "qHTS profiling assay for firefly luciferase inhibitor/activator using purifed enzyme and Km concentrations of substrates (counterscreen for miR-21 project); also: nearly all actives have a fitted effect of over 55% in size;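 as to activity change, negative = inhibition: plate controls were vehicle for no effect and reference inhibitor for full effect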", "details": "purified FLuc, luminescence inhibition; series mostly up to 57.5 µM; activity change, negative = inhibition: at the top concentration", "how_it_was_run": "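Purified P. pyralis luciferase, 10 nM final, with Km-level 10 uM D-luciferin and 10 uM ATP in 50 mM Tris acetate pH 7.5, 10 mM Mg acetate, 0.01% Tween-20, 0.05% BSA; 6-point qHTS titration about 60 µM downward; luminescence read.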"}
{"smiles": "Cc1ccc(NC(=O)/C(Cl)=C/c2ccccc2)cc1C", "Potency": "active: 0.757 µM"}
{"smiles": "COc1ccccc1C(=O)NCCC(=O)NC(C)c1ccc(-n2ccnc2)cc1", "note": "(centres undefined)", "activity change, negative = inhibition": "inactive: 5.59%"}
{"smiles": "Cn1cc(/C=N/NC(=O)c2cc3cc(Br)ccc3o2)c2ccccc21", "Potency": "active: 8.49 µM"}
{"smiles": "COc1ccccc1NC(=O)c1ccc(COc2ccc3c(c2)CCC3)cc1", "activity change, negative = inhibition": "inactive: -2.15%"}
{"smiles": "N#C/C(=C\\c1ccccc1OCc1ccc(C(=O)O)cc1)c1ccccc1", "Potency": "inconclusive: 37.9 µM [inhibitor, single point]"}
{"smiles": "CCN(CC(=O)Nc1c(F)cccc1F)C(=O)c1cc(C)oc1C", "activity change, negative = inhibition": "inactive: 4.86%"}
{"smiles": "O=C(CNC(=S)NC(=O)c1ccco1)c1ccccc1", "Potency": "active: 12 µM"}
{"smiles": "COCCCn1c(=S)[nH]c2c(sc3ccccc32)c1=O", "Potency": "inconclusive: 21.3 µM [inhibitor, partial curve]"}
{"smiles": "O=C1CC2c3ccccc3C1C1C(=O)N(CCc3ccccc3)C(=O)C21", "note": "(centres undefined)", "Potency": "inconclusive: 0.0076 µM [inhibitor, partial curve, poor fit]"}
{"smiles": "CCOC(=O)c1cc2c(ccc3nc(C)c(C)c32)[nH]c1C", "Potency": "inconclusive: 16.9 µM [inhibitor, partial curve]"}
{"smiles": "Cc1ccc2sc(-c3ccc(N)cc3)nc2c1", "Potency": "active: 0.169 µM"}
{"smiles": "O=C(Nc1ccc2nc(SCC(=O)N3CCc4ccccc43)sc2c1)c1ccccc1", "Potency": "inconclusive: 1.9 µM [inhibitor, partial curve, poor fit]"}
{"smiles": "Cc1ccc(NC(=O)CN2C(=O)c3ccccc3S2(=O)=O)cc1C", "Potency": "inconclusive: 37.9 µM [inhibitor, partial curve, poor fit]"}
{"smiles": "NC(=S)c1cc2ccc(O)cc2oc1=O", "Potency": "inconclusive: 23.9 µM [inhibitor, partial curve, poor fit]"}
{"smiles": "CCCNC(=O)c1oc2ccc3c(c2c1C)C(=O)CC(C)(C)O3", "Potency": "active: 2.39 µM"}
{"smiles": "CCc1ccc(-n2c(=O)c3sc4ccccc4c3n(CC(=O)N(CC)Cc3ccccc3)c2=O)cc1", "activity change, negative = inhibition": "inactive: 3.76%"}
{"smiles": "O=C(NC(=S)Nc1ccc(CN2CCOCC2)cc1)c1ccco1", "Potency": "active: 16.9 µM"}
{"smiles": "O=[N+]([O-])c1cccc(-c2cn3nc(-c4ccccc4)c(-c4ccccc4)nc3n2)c1", "activity change, negative = inhibition": "inactive: 1.19%"}
{"smiles": "O=C(Nc1cccc(Cl)c1N1CCCC1)c1cccc(-c2cc3ccccc3oc2=O)c1", "Potency": "inconclusive: 16.9 µM [inhibitor, partial curve]"}
{"smiles": "CCCCC(=O)Nc1cnc(NC(=O)c2cccs2)cc1C", "Potency": "active: 19 µM"}
{"smiles": "Cc1ccc(OCC(=O)Nc2ccccc2C(=O)OCc2cc(=O)n3ccsc3n2)cc1", "activity change, negative = inhibition": "inactive: -10.5%"}
{"smiles": "C/C(=N\\NC(=O)Cc1c[nH]c2ccccc12)c1ccc2ccccc2c1", "Potency": "inconclusive: 37.9 µM [inhibitor, partial curve, poor fit]"}
{"smiles": "CC(=O)Nc1ccc(S(=O)(=O)NNc2cccc(C)c2)cc1", "Potency": "inconclusive: 37.9 µM [inhibitor, partial curve, poor fit]"}
{"smiles": "CCCCCn1c(-c2ccco2)nc2nc3ccccc3nc21", "Potency": "inconclusive: 33.8 µM [inhibitor, partial curve, poor fit]"}
{"smiles": "CCOC(=O)Nc1ccc2c(C)cc(=O)oc2c1", "Potency": "active: 15.1 µM"}
{"smiles": "COc1cc2c(cc1NC(=O)Nc1ccccc1)oc1ccccc12", "Potency": "inconclusive: 21.3 µM [inhibitor, partial curve, poor fit]"}
{"smiles": "S=C(NCCc1ccccn1)NC1CCCCC1", "Potency": "inconclusive: 23.9 µM [inhibitor, single point]"}
{"smiles": "CSc1ccc(CNC(=O)Cn2nc(N3CCN(c4ccccc4)CC3)ccc2=O)cc1", "Potency": "inconclusive: 37.9 µM [inhibitor, partial curve, poor fit]"}
{"smiles": "COc1ccc(NS(=O)(=O)c2cccc(C(=O)NNC(=O)c3ccccc3O)c2)cc1", "Potency": "inconclusive: 37.9 µM [inhibitor, single point]"}
{"smiles": "Cc1ccc(NC(=O)CSc2ncc(-c3ccccc3)[nH]2)cc1", "Potency": "inconclusive: 26.9 µM [inhibitor, partial curve, poor fit]"}
{"smiles": "O=C(Nc1nccs1)c1sc2ccccc2c1Cl", "Potency": "active: 0.675 µM"}
{"smiles": "COc1cccc(NC(=O)CSc2nnc(-c3cccc(OC)c3)o2)c1", "Potency": "inconclusive: 42.6 µM [inhibitor, partial curve, poor fit]"}
{"smiles": "CCc1ccc(NC(=O)NCCc2c(C)nn(C)c2C)cc1", "activity change, negative = inhibition": "inactive: -0.684%"}
{"smiles": "Fc1ccc(COc2cccc(CNCc3ccncc3)c2)cc1", "activity change, negative = inhibition": "inactive: -11.4%"}
{"smiles": "CC1CC(C)(C)NC(=S)N1CCCC(=O)Nc1ccc2c(c1)OCCO2", "note": "(centres undefined)", "Potency": "active: 26.9 µM"}
{"smiles": "COc1ccc(C(=O)Nc2ccccc2C(=O)NCc2ccco2)cc1", "Potency": "inconclusive: 19 µM [inhibitor, partial curve]"}
{"smiles": "CCOc1ccc(S(=O)(=O)NCCC(=O)N2CC=C(c3ccccc3)CC2)cc1", "activity change, negative = inhibition": "inactive: -0.713%"}
{"smiles": "CCN(CC)c1ccc(/C=N/NC(=O)c2ccc([N+](=O)[O-])cc2)cc1", "activity change, negative = inhibition": "inactive: 8.01%"}
{"smiles": "COc1cc(C(=O)NCC(=O)N/N=C\\C(C)=C/c2ccccc2)cc(OC)c1OC", "Potency": "inconclusive: 23.9 µM [inhibitor, partial curve]"}
{"smiles": "Cc1ccc(-c2csc3nc(C)n(-n4c(C)ccc4C)c(=O)c23)o1", "Potency": "inconclusive: 37.9 µM [inhibitor, partial curve, poor fit]"}
{"smiles": "Cc1ccc(NC(=O)CN2C(=O)NC(C)(c3ccc(Cl)cc3)C2=O)cc1", "note": "(centres undefined)", "activity change, negative = inhibition": "inactive: 0.544%"}
{"smiles": "CC(C)CN1C(=O)C(=O)N(CC(=O)N2CCN(c3ccccc3)CC2)C1=O", "activity change, negative = inhibition": "inactive: -0.518%"}
{"smiles": "O=C(COC(=O)c1ccc(Br)o1)Nc1ccc(Br)cc1", "activity change, negative = inhibition": "inactive: -1.03%"}
{"smiles": "Cc1cccc(NC(=O)CSc2nnc(NC(=O)Nc3ccccc3)s2)c1C", "activity change, negative = inhibition": "inactive: -10.5%"}
{"smiles": "CCOc1cc(CNC(=O)NC2COc3ccccc3C2)cc(OCC)c1OCC", "note": "(centres undefined)", "activity change, negative = inhibition": "inactive: 1.72%"}
{"smiles": "O=C(CSc1nc2ccc(Cl)cc2[nH]1)Nc1ccc2[nH]c(=O)[nH]c2c1", "Potency": "inconclusive: 30.1 µM [inhibitor, partial curve, poor fit]"}
{"smiles": "CC(=O)C1=C(O)C(=O)N(Cc2cccnc2)C1c1ccc(Cl)cc1", "note": "(centres undefined)", "Potency": "inconclusive: 8.49 µM [inhibitor, single point]"}
{"smiles": "COc1ccccc1CNC(=O)c1cc2ccccc2oc1=O", "activity change, negative = inhibition": "inactive: -0.984%"}
{"smiles": "O=C1CCC([N+](=O)[O-])C(c2cc(Br)ccc2F)N1", "note": "(centres undefined)", "activity change, negative = inhibition": "inactive: 2%"}
